Data published in the supplement of paper PMC8728848.
The list shows a part of the results.

What was measured:
Experiment in all cases: glycan array binding signal (z-score within array); higher = stronger binding
Conditions in all cases: glycan notation: IUPAC condensed, linker removed
[1] = biological target: GlcNAc(b1-3)Gal(b1-3)GalNAc
Method in brief: (§1)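 The Consortium for Functional Glycomics database supplied 3228 glycan arrays, of which those lacking an available protein sequence were dropped. The binding signal, a within-array Z-score, was averaged across arrays of the same protein sequence and across linkers. Negative scores can be read as non-binding.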

GlcNAc(b1-3)Gal(b1-4)Glc = biological target: GlcNAc(b1-3)Gal(b1-4)Glc
Method in brief: as §1

[2] = biological target: GlcNAc(b1-3)Gal(b1-4)GlcNAc
Method in brief: as §1

[3] = biological target: GlcNAc(b1-3)Gal(b1-4)GlcNAc(b1-2)Man(a1-3)[GlcNAc(b1-3)Gal(b1-4)GlcNAc(b1-2)Man(a1-6)]Man(b1-4)GlcNAc(b1-4)GlcNAc
Method in brief: as §1

[4] = biological target: GlcNAc(b1-3)Gal(b1-4)GlcNAc(b1-2)Man(a1-3)[GlcNAc(b1-3)Gal(b1-4)GlcNAc(b1-2)Man(a1-6)]Man(b1-4)GlcNAc(b1-4)[Fuc(a1-6)]GlcNAc
Method in brief: as §1

[5] = biological target: GlcNAc(b1-3)Gal(b1-4)GlcNAc(b1-2)[GlcNAc(b1-3)Gal(b1-4)GlcNAc(b1-6)]Man(a1-6)[GlcNAc(b1-3)Gal(b1-4)GlcNAc(b1-2)Man(a1-3)]Man(b1-4)GlcNAc(b1-4)GlcNAc
Method in brief: as §1

[6] = biological target: GlcNAc(b1-3)Gal(b1-4)GlcNAc(b1-3)Gal(b1-4)GlcNAc
Method in brief: as §1

[7] = biological target: GlcNAc(b1-3)Gal(b1-4)GlcNAc(b1-3)Gal(b1-4)GlcNAc(b1-2)Man(a1-3)[GlcNAc(b1-3)Gal(b1-4)GlcNAc(b1-3)Gal(b1-4)GlcNAc(b1-2)Man(a1-6)]Man(b1-4)GlcNAc(b1-4)GlcNAc
Method in brief: as §1

[8] = biological target: GlcNAc(b1-3)Gal(b1-4)GlcNAc(b1-3)Gal(b1-4)GlcNAc(b1-2)Man(a1-3)[GlcNAc(b1-3)Gal(b1-4)GlcNAc(b1-3)Gal(b1-4)GlcNAc(b1-2)Man(a1-6)]Man(b1-4)GlcNAc(b1-4)[Fuc(a1-6)]GlcNAc
Method in brief: as §1

[9] = biological target: GlcNAc(b1-3)Gal(b1-4)GlcNAc(b1-3)Gal(b1-4)GlcNAc(b1-2)[GlcNAc(b1-3)Gal(b1-4)GlcNAc(b1-3)Gal(b1-4)GlcNAc(b1-6)]Man(a1-6)[GlcNAc(b1-3)Gal(b1-4)GlcNAc(b1-3)Gal(b1-4)GlcNAc(b1-2)Man(a1-3)]Man(b1-4)GlcNAc(b1-4)[Fuc(a1-6)]GlcNAc
Method in brief: as §1

[10] = biological target: GlcNAc(b1-3)Gal(b1-4)GlcNAc(b1-3)Gal(b1-4)GlcNAc(b1-3)Gal(b1-4)GlcNAc(b1-2)Man(a1-3)[GlcNAc(b1-3)Gal(b1-4)GlcNAc(b1-3)Gal(b1-4)GlcNAc(b1-3)Gal(b1-4)GlcNAc(b1-2)Man(a1-6)]Man(b1-4)GlcNAc(b1-4)GlcNAc
Method in brief: as §1

[11] = biological target: GlcNAc(b1-3)Gal(b1-4)GlcNAc(b1-3)Gal(b1-4)GlcNAc(b1-3)Gal(b1-4)GlcNAc(b1-2)Man(a1-3)[GlcNAc(b1-3)Gal(b1-4)GlcNAc(b1-3)Gal(b1-4)GlcNAc(b1-3)Gal(b1-4)GlcNAc(b1-2)Man(a1-6)]Man(b1-4)GlcNAc(b1-4)[Fuc(a1-6)]GlcNAc
Method in brief: as §1

[12] = biological target: GlcNAc(b1-3)Gal(b1-4)GlcNAc(b1-3)Gal(b1-4)GlcNAc(b1-3)Gal(b1-4)GlcNAc(b1-2)[GlcNAc(b1-3)Gal(b1-4)GlcNAc(b1-3)Gal(b1-4)GlcNAc(b1-3)Gal(b1-4)GlcNAc(b1-6)]Man(a1-6)[GlcNAc(b1-3)Gal(b1-4)GlcNAc(b1-3)Gal(b1-4)GlcNAc(b1-3)Gal(b1-4)GlcNAc(b1-2)Man(a1-3)]Man(b1-4)GlcNAc(b1-4)[Fuc(a1-6)]GlcNAc
Method in brief: as §1

[13] = biological target: GlcNAc(b1-3)Gal(b1-4)GlcNAc(b1-3)Gal(b1-4)GlcNAc(b1-3)Gal(b1-4)GlcNAc(b1-3)Gal(b1-4)GlcNAc(b1-2)Man(a1-3)[GlcNAc(b1-3)Gal(b1-4)GlcNAc(b1-3)Gal(b1-4)GlcNAc(b1-3)Gal(b1-4)GlcNAc(b1-3)Gal(b1-4)GlcNAc(b1-2)Man(a1-6)]Man(b1-4)GlcNAc(b1-4)GlcNAc
Method in brief: as §1

[14] = biological target: GlcNAc(b1-3)Gal(b1-4)GlcNAc(b1-3)Gal(b1-4)GlcNAc(b1-3)Gal(b1-4)GlcNAc(b1-3)Gal(b1-4)GlcNAc(b1-2)Man(a1-3)[GlcNAc(b1-3)Gal(b1-4)GlcNAc(b1-3)Gal(b1-4)GlcNAc(b1-3)Gal(b1-4)GlcNAc(b1-3)Gal(b1-4)GlcNAc(b1-2)Man(a1-6)]Man(b1-4)GlcNAc(b1-4)[Fuc(a1-6)]GlcNAc
Method in brief: as §1

[15] = biological target: GlcNAc(b1-3)Gal(b1-4)GlcNAc(b1-3)Gal(b1-4)GlcNAc(b1-3)Gal(b1-4)GlcNAc(b1-3)Gal(b1-4)GlcNAc(b1-2)[GlcNAc(b1-3)Gal(b1-4)GlcNAc(b1-3)Gal(b1-4)GlcNAc(b1-3)Gal(b1-4)GlcNAc(b1-3)Gal(b1-4)GlcNAc(b1-6)]Man(a1-6)[GlcNAc(b1-3)Gal(b1-4)GlcNAc(b1-3)Gal(b1-4)GlcNAc(b1-3)Gal(b1-4)GlcNAc(b1-3)Gal(b1-4)GlcNAc(b1-2)Man(a1-3)]Man(b1-4)GlcNAc(b1-4)[Fuc(a1-6)]GlcNAc
Method in brief: as §1

[16] = biological target: GlcNAc(b1-3)Gal(b1-4)GlcNAc(b1-3)Gal(b1-4)GlcNAc(b1-3)GalNAc
Method in brief: as §1

[17] = biological target: GlcNAc(b1-3)Gal(b1-4)GlcNAc(b1-3)GalNAc
Method in brief: as §1

[18] = biological target: GlcNAc(b1-3)Gal(b1-4)GlcNAc(b1-3)[GlcNAc(b1-3)Gal(b1-4)GlcNAc(b1-3)]GalNAc
Method in brief: as §1

[19] = biological target: GlcNAc(b1-3)Gal(b1-4)GlcNAc(b1-6)[Gal(b1-3)]GalNAc
Method in brief: as §1

[20] = biological target: GlcNAc(b1-3)Gal(b1-4)GlcNAc(b1-6)[GlcNAc(b1-3)Gal(b1-3)]GalNAc
Method in brief: as §1

[21] = biological target: GlcNAc(b1-3)Gal(b1-4)GlcNAc(b1-6)[GlcNAc(b1-3)]Gal(b1-4)GlcNAc
Method in brief: as §1

GlcNAc(b1-3)GalNAc = biological target: GlcNAc(b1-3)GalNAc
Method in brief: as §1

GlcNAc(b1-3)Man = biological target: GlcNAc(b1-3)Man
Method in brief: as §1

[22] = biological target: GlcNAc(b1-3)[GlcNAc(b1-4)][GlcNAc(b1-6)]GlcNAc
Method in brief: as §1

[23] = biological target: GlcNAc(b1-3)[GlcNAc(b1-6)]Gal(b1-4)GlcNAc
Method in brief: as §1

[24] = biological target: GlcNAc(b1-3)[GlcNAc(b1-6)]GalNAc
Method in brief: as §1

[25] = biological target: GlcNAc(b1-4)Gal(b1-4)GlcNAc
Method in brief: as §1

GlcNAc(b1-4)GlcNAc = biological target: GlcNAc(b1-4)GlcNAc
Method in brief: as §1

[26] = biological target: GlcNAc(b1-4)GlcNAc(b1-4)GlcNAc
Method in brief: as §1

[27] = biological target: GlcNAc(b1-4)GlcNAc(b1-4)GlcNAc(b1-4)GlcNAc(b1-4)GlcNAc
Method in brief: as §1

[28] = biological target: GlcNAc(b1-4)GlcNAc(b1-4)GlcNAc(b1-4)GlcNAc(b1-4)GlcNAc(b1-4)GlcNAc
Method in brief: as §1

[29] = biological target: GlcNAc(b1-4)[GlcNAc(b1-6)]GalNAc
Method in brief: as §1

[30] = biological target: GlcNAc(b1-6)Gal(b1-4)GlcNAc
Method in brief: as §1

GlcNAc(b1-6)GalNAc = biological target: GlcNAc(b1-6)GalNAc
Method in brief: as §1

[31] = biological target: GlcNAc6S(b1-3)Gal(b1-4)GlcNAc
Method in brief: as §1

Kdn(a2-3)Gal(b1-3)GalNAc = biological target: Kdn(a2-3)Gal(b1-3)GalNAc
Method in brief: as §1

Kdn(a2-3)Gal(b1-3)GlcNAc = biological target: Kdn(a2-3)Gal(b1-3)GlcNAc
Method in brief: as §1

Kdn(a2-3)Gal(b1-4)Glc = biological target: Kdn(a2-3)Gal(b1-4)Glc
Method in brief: as §1

Kdn(a2-3)Gal(b1-4)GlcNAc = biological target: Kdn(a2-3)Gal(b1-4)GlcNAc
Method in brief: as §1

[32] = biological target: Kdn(a2-3)Gal(b1-4)[Fuc(a1-3)]GlcNAc
Method in brief: as §1

Kdn(a2-6)Gal(b1-4)GlcNAc = biological target: Kdn(a2-6)Gal(b1-4)GlcNAc
Method in brief: as §1

[33] = biological target: Man(a1-2)Man(a1-2)Man(a1-3)Man
Method in brief: as §1

[34] = biological target: Man(a1-2)Man(a1-2)Man(a1-6)[Man(a1-3)]Man
Method in brief: as §1

Man(a1-2)Man(a1-3)Man = biological target: Man(a1-2)Man(a1-3)Man
Method in brief: as §1

B1: Sebin1 (Coprinopsis cinerea), A8PEE3 (protein)
chain: MTSPFYAHIHNVQDDNTWRFTLIFANRATADEWWRAISEAPANTSIAKSITRVTPQYYTHDVNIWNIWNFFADGNIKSISERFRGRLFIVLENDRGGRGITVIPPVPIVDHVSGNWFYIRSKTAPHLFWYYDERRSSIYASKEKRTRFKISIRNPSSQTPKNAIMINTDDVTIHIKENLYVGVDNNLGHIIPTRAYRTFKFGELESGAIAGFDVVENIEERCSSTFDGASLSISGPDSSSPGEPWELV
- glycan array binding signal (z-score) [1]: -0.466
- glycan array binding signal (z-score) (GlcNAc(b1-3)Gal(b1-4)Glc): -0.251
- glycan array binding signal (z-score) [2]: -0.457
- glycan array binding signal (z-score) [3]: -0.501
- glycan array binding signal (z-score) [4]: 0.282
- glycan array binding signal (z-score) [5]: -0.792
- glycan array binding signal (z-score) [6]: -0.374
- glycan array binding signal (z-score) [7]: 0.145
- glycan array binding signal (z-score) [8]: -0.269
- glycan array binding signal (z-score) [9]: -0.425
- glycan array binding signal (z-score) [10]: -0.526
- glycan array binding signal (z-score) [11]: 1.56
- glycan array binding signal (z-score) [12]: -0.407
- glycan array binding signal (z-score) [13]: 0.935
- glycan array binding signal (z-score) [14]: -0.218
- glycan array binding signal (z-score) [15]: -0.62
- glycan array binding signal (z-score) [16]: -0.391
- glycan array binding signal (z-score) [17]: -0.74
- glycan array binding signal (z-score) [18]: -0.696
- glycan array binding signal (z-score) [19]: -0.195
- glycan array binding signal (z-score) [20]: -0.552
- glycan array binding signal (z-score) [21]: -0.671
- glycan array binding signal (z-score) (GlcNAc(b1-3)GalNAc): -0.499
- glycan array binding signal (z-score) (GlcNAc(b1-3)Man): -0.627
- glycan array binding signal (z-score) [22]: -0.592
- glycan array binding signal (z-score) [23]: -0.591
- glycan array binding signal (z-score) [24]: -0.319
- glycan array binding signal (z-score) [25]: -0.126
- glycan array binding signal (z-score) (GlcNAc(b1-4)GlcNAc): -0.473
- glycan array binding signal (z-score) [26]: -0.27
- glycan array binding signal (z-score) [27]: -0.511
- glycan array binding signal (z-score) [28]: -0.27
- glycan array binding signal (z-score) [29]: -0.714
- glycan array binding signal (z-score) [30]: -0.379
- glycan array binding signal (z-score) (GlcNAc(b1-6)GalNAc): 0.715
- glycan array binding signal (z-score) [31]: -0.801
- glycan array binding signal (z-score) (Kdn(a2-3)Gal(b1-3)GalNAc): -0.271
- glycan array binding signal (z-score) (Kdn(a2-3)Gal(b1-3)GlcNAc): -0.434
- glycan array binding signal (z-score) (Kdn(a2-3)Gal(b1-4)Glc): 0.514
- glycan array binding signal (z-score) (Kdn(a2-3)Gal(b1-4)GlcNAc): -0.558
- glycan array binding signal (z-score) [32]: 1.4
- glycan array binding signal (z-score) (Kdn(a2-6)Gal(b1-4)GlcNAc): -0.282
- glycan array binding signal (z-score) [33]: -0.328
- glycan array binding signal (z-score) [34]: -0.075
- glycan array binding signal (z-score) (Man(a1-2)Man(a1-3)Man): -0.17
